Results taken from PubChem BioAssay AID686979 (National Center for Advancing Translational Sciences (NCATS), 2013).
Among all 420,000 compounds or so, about 50,000 (12%) were called active. The shares of active, inactive and inconclusive entries below differ from those in the screen. Calls come from the whole dose curve; as a rule, active = well fitted inhibition curve with a large enough effect; inconclusive = small, poorly fitted or top-dose-only effect; inactive = flat fitted curve, though single readings scatter. Potencies of inconclusive entries are left out as doubtful fits.

experiment: qHTS for Inhibitors of human tyrosyl-DNA phosphodiesterase 1 (TDP1): qHTS in cells in presence of CPT; details: chicken DT40 Tdp1-/-;hTDP1 cells + 20 nM CPT, ATP luminescence, 48 h; activity change, negative = growth inhibition: at 46.2 µM (top of the series) unless noted; note: nearly all actives have a fitted effect of over 55% in size
Procedure, shortened: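 Chicken DT40 Tdp1-/- cells stably complemented with human TDP1 were seeded at 400 cells/well in medium containing 20 nM camptothecin, exposed to pin-transferred compounds, and grown at 37 °C for at least 48 hr. Viability was read as ATP luminescence.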
% is set by controls: 0 for no effect and ±100 for the full control effect; potency is the fitted concentration of half-maximal effect; tags give direction and shape of the fitted curve.

Compound	Potency	activity change, negative = growth inhibition
CCN(C(=S)Nc1ccc(OC(F)F)cc1)C1CCCCC1	inactive	
Nc1nonc1C(=O)NCCNCc1ccccc1OCc1ccccc1F	inconclusive [inhibitor, single point]	
COc1ccc(/C=c2\sc3nc(-c4ccccc4)c(-c4ccccc4)n3c2=O)cc1OC	inconclusive [inhibitor, single point]	
COc1ccc(-c2nc(CN(C)C(C)c3ccon3)c(C)o2)c(C)c1C (stereo unspecified)	inconclusive [inhibitor, single point]	
COc1ccccc1NC(=O)CSc1nc2c(oc3ccccc32)c(=O)n1C	inconclusive [inhibitor, single point]	
COC(=O)CSc1nc2c(c(C3CC=CCC3)c1C#N)CCC2 (stereo unspecified)	inconclusive [inhibitor, single point]	
CCN(C(=S)NCc1ccccc1)c1ccccc1	inactive	
CCN(CC)CCCNC(=O)C1CCN(S(C)(=O)=O)CC1	inactive	
CCOC(=O)[C@]12CCC=C1N(CCC1=CCCCC1)C(=O)[C@H](CC(=O)NCCc1ccccc1OC)C2	inconclusive [inhibitor, single point]	
Cc1c(C)n(Cc2ccccc2)c2ccc(C(=O)NCc3ccc(OC(C)C)cc3)cc12	active: 16.4 µM	
CC(=O)c1cn(CC(=O)NCc2ccco2)c2ccccc12	inconclusive [inhibitor, full curve, poor fit]	
Cc1cccc(N2CCN(S(=O)(=O)c3ccc4oc(=O)c5ncn(C)c5c4c3)CC2)c1C	inconclusive [inhibitor, single point]	
COC(=O)Cc1c(C)c2ccc(OCC(=O)NC3CCS(=O)(=O)C3)cc2oc1=O (stereo unspecified)	inactive	
COc1ccccc1/C=N\Nc1ccccc1[N+](=O)[O-]	inactive	
Cc1cccc(Cc2cnc(NC(=O)C3=NCCN3)s2)c1	inactive	
COc1cccc(/C=N/NC(=O)CCn2c3ccccc3c3ccccc32)c1	inconclusive [inhibitor, single point]	
NC(c1ccccc1)c1csc(Nc2cc(Oc3ccccc3)ncn2)n1 (stereo unspecified)	active: 18.4 µM	
O=C(CN1CCN(C(=O)C2CCN(C(=O)/C=C/c3ccccc3)CC2)CC1)Nc1ccc(F)cc1	inconclusive [inhibitor, single point]	
COC(=O)CC1C(=O)NCCN1C(=O)OC(C)(C)C (stereo unspecified)	inactive	
COc1ccccc1CN(C)C(=O)c1sccc1-c1ccccc1	inconclusive [inhibitor, single point]	
Cc1cc(C)c(NC(=O)CNC(=O)COC(=O)C2=COCCO2)c(C)c1	inactive	
CCOC(=O)C1(Cc2ccccc2C(F)(F)F)CCN(CCCn2cccn2)CC1	inconclusive [inhibitor, partial curve]	
CCOC(=O)c1sc(NC(=O)C(C)Sc2nc(-c3ccccc3)cc(C(F)(F)F)n2)c(C(=O)OC)c1C (stereo unspecified)	inactive	

Compound	Potency	activity change, negative = growth inhibition
O=C1C(Cl)=C(Nc2ccccc2O)C(=O)N1c1ccccc1		inconclusive: -33.7% [inhibitor]
CCOc1ccc(C(=O)NNC(=O)CNC(=O)c2ccc(C)s2)cc1OC	inactive	
Cc1csc(Sc2nc3c(c(=O)[nH]c(=O)n3C)n2Cc2ccccc2Cl)n1	inconclusive [inhibitor, single point]	
CCOc1cccc(CNCCO)c1OCc1ccc(Cl)cc1	inconclusive [inhibitor, partial curve]	
Cc1nn(C)c(C)c1S(=O)(=O)N(CC(=O)NCc1cccs1)c1ccc(C(C)C)cc1	inactive	
CCOC(=O)c1c(-n2cnnn2)sc2c1CCCC2	inactive	
COc1cc(OC)cc(C(=O)OCC(=O)NCc2ccco2)c1	inactive	
CN(C)/C=N/c1nc2ccc3c(c2s1)CCCC3	inconclusive [inhibitor, single point]	
COc1ccc(/C=C/C(=O)OCC(=O)N2CCCC2)c(OC)c1	inconclusive [inhibitor, single point]	
S=C(/N=c1/sccn1Cc1ccccc1)NC1CC1	inconclusive [inhibitor, single point]	
CCOC(=O)c1c(-c2ccc(OC)c(OC)c2)csc1NC(=O)C1CCCO1 (stereo unspecified)	inconclusive [inhibitor, single point]	
O=C(c1cnc2n(c1=O)CCS2)N1CCN(c2ccc(Cl)c(Cl)c2)CC1	inconclusive [inhibitor, single point]	
COc1ccc(Nc2nc3ccc(Cl)cc3n3nnnc23)cc1OC	inconclusive [inhibitor, single point]	
N#Cc1ccccc1S(=O)(=O)N1CCN(C(=O)c2ccc(-n3cncn3)c([N+](=O)[O-])c2)CC1	inconclusive [inhibitor, single point]	
O=C(O)c1ccc(N2CCc3ccccc32)c([N+](=O)[O-])c1	inconclusive [inhibitor, single point]	
Cc1cccc(-c2oc3ccccc3c2C#CCCCCO)c1	inconclusive [inhibitor, single point]	
CCOC(=O)c1ccc(NC(=O)C2(c3ccccc3)CCCC2)cc1	inconclusive [inhibitor, single point]	
COc1ccc(-c2csc(NC(=O)CN3C(=O)NC4(CCCC4)C3=O)n2)c(OC)c1	inconclusive [inhibitor, single point]	
O=C(O)Cc1c(-c2ccccc2Cl)c2cc(Br)ccc2[nH]c1=O	inconclusive [inhibitor, single point]	
COc1cc(C2Nc3c(F)cccc3C3C=CCC32)cc(Br)c1OC (stereo unspecified)	inactive	
O=C(CSc1nc(=O)n(CCCN2CCOCC2)c2c1CCCC2)Nc1cccc([N+](=O)[O-])c1	inconclusive [inhibitor, single point]	
CCc1nnc(NC(=O)c2ccc(COc3ccccc3C)o2)s1	inactive	
S=c1nc(Cc2ccccc2)[nH]c2ccccc12	active: 25.9 µM	
